The text below walks through data of ChEMBL document CHEMBL4888484, “Replenishing the malaria drug discovery pipeline: Screening and hit evaluation of the MMV Hit Generation Library 1 (HGL1) against asexual blood stage Plasmodium falciparum ,using a nano luciferase reporter read-out” (2022).

The whole screen tested about 150,000 compounds, of which about 540 (0.36%) showed an effect of 50% or more. The list shows a part of the results.

The test relates to Plasmodium falciparum. Nature of the test: Primary screen in NF54 nanoGlo assay, in single point, at 2uM, 72h; a lower Z score goes with more inhibition. It counts as functional, Erythrocyte. The conditions noted are these: timepoint 72 hour.
With `Cc1ccc2nc(C=Cc3c[nH]nc3C(C)(C)C)ccc2c1`, the “% Inhibition” value is given as -3% and the Z score is given as 0.4.

For the compound `CC[C@@H]1NC(=O)N(Cc2c(Cl)oc3ccccc23)C1=O`, the “% Inhibition” value was -1% and the Z score was determined as 0.1.

Turning to `C#CCN(C(=O)[C@H](C)OC1CCCCCC1)c1nccs1`, the “% Inhibition” value is reported as -10% and the Z score was found to be 1.43.

Consider `C=CCC1(CC=C)CCCCN1C(=O)Cc1ccncc1`, for which the “% Inhibition” value is on record as -4% and the Z score is given as 0.41.

On to `CN1CCN(c2ncnc3c2ccc(=O)n3C2CC2)CC1`, for which the “% Inhibition” value was -8% and the Z score is reported as 1.35.

With `CCn1ccnc(N2CCN(S(C)(=O)=O)c3ccccc3C2)c1=O`, the “% Inhibition” value is -15% and the Z score is reported as 2.8.

Take `Cc1ccccc1-n1c(=O)n(C2CCCCC2)c(=O)c2c1ncn2Cc1ccccc1`: the “% Inhibition” value is -1% and the Z score was found to be 0.09.

Take `Cc1noc(C)c1CN(C)C(=O)C(=O)Nc1cccc2c1CCCC2`: the “% Inhibition” value is reported as -4% and the Z score came out at 0.59.

With `Cc1nn(-c2ccc(C(=O)N3CCN(c4ccccc4)CC3)cc2)c2c1C(=O)CCC2`, the “% Inhibition” value is recorded as -18% and the Z score is listed as 1.63.

With `Cc1nc(CCNC(=O)c2cnc(C(C)(C)C)nc2O)sc1Cl`, the “% Inhibition” value was -7% and the Z score worked out at 1.05.

Take `Cc1c(CN(C)CCOCC(C)C)cnn1C`: the “% Inhibition” value is on record as -2% and the Z score turned out to be 0.25.

In the case of `CN(CC(C)(C)O)c1ncc(Br)cn1`, the “% Inhibition” value is -13% and the Z score is 1.96.

`CC(CS(=O)(=O)c1ccccc1)NC1CCOc2ccccc21` (stereo not given): the “% Inhibition” value is -3% and the Z score is 0.47.

For `CC(C)c1nc2cc(N(C)C(=O)CCc3ccc(Cl)cc3)ccc2o1`, the “% Inhibition” value was -19% and the Z score came out at 1.76.

Take `CC1CN(C(CNCc2cccnc2)c2cccs2)CCO1` (stereo not given): the “% Inhibition” value came out at 1% and the Z score is recorded as -0.08.

For `CC(C)C(=O)N(Cc1ccc(-c2ccc(Cl)cc2)o1)[C@H]1CCS(=O)(=O)C1`, the “% Inhibition” value was determined as 1% and the Z score is -0.15.

For the compound `C=CCN1CC[C@@H](N2CCC(C)CC2)CCC1=O`, the “% Inhibition” value is given as -5% and the Z score amounted to 0.55.

For `c1ccc2c(c1)OC[C@H](CN1CCc3[nH]ncc3C1)O2`, the “% Inhibition” value is on record as 4% and the Z score is -0.52.

Turning to `CNS(=O)(=O)c1ccc(C#N)c(F)c1`, the “% Inhibition” value is reported as -1% and the Z score is 0.13.

Regarding `N#CC1(NC(=O)[C@H]2CC[C@H](c3ccccc3)C2)CCN(Cc2ccccc2)CC1`, the “% Inhibition” value is listed as -6% and the Z score is given as 1.01.

Turning to `CS(=O)(=O)N[C@H]1CC12CCN(C(=O)c1ccccc1)CC2`, the “% Inhibition” value is reported as -7% and the Z score was 0.9.

Turning to `COCCn1cc(C(=O)NC2CCCCCCC2)c(=O)c(C(=O)N2CCC(C)CC2)c1`, the “% Inhibition” value is -2% and the Z score is 0.23.

As to `O=C(Cc1ccccc1)Nc1ccc(N2CCCN(Cc3ccc(Cl)cc3)CC2)nc1`, the “% Inhibition” value is given as -5% and the Z score came out at 0.75.

Take `N#Cc1ccc(C(=O)N[C@@H]2COCC[C@@H]2Oc2cccc(F)c2)cn1`: the “% Inhibition” value is -9% and the Z score is recorded as 0.95.

With `O=C1N[C@H]2C[C@@H](C(=O)NC[C@H]3O[C@H](CCOc4ccccc41)CC[C@@H]3O)N(C1CCCC1)C2`, the “% Inhibition” value is -15% and the Z score is 1.99.

Turning to `OC[C@H]1CCCN1c1cc2c(nn1)CCC2`, the “% Inhibition” value was -30% and the Z score came out at 3.82.

As for `CCOc1ncccc1CNC(=O)CN1C(=O)COc2ccc(Cl)cc21`, the “% Inhibition” value stood at 2% and the Z score was -0.36.

On to `CNCc1cc(Br)ccc1OC`, for which the “% Inhibition” value is -7% and the Z score came to 0.92.

On to `NC(=O)Cc1ccc(OCc2noc(C(=O)NCc3ccncc3)n2)cc1`, for which the “% Inhibition” value was found to be 30% and the Z score is listed as -3.44.

Turning to `COCCN1C[C@@H](c2nc(C(C)C)no2)CCC1=O`, the “% Inhibition” value is listed as -1% and the Z score is recorded as 0.22.

In the case of `CCc1onc(C)c1[C@@H]1CCCN1Cc1ccc(OC(C)C)c(OC)c1`, the “% Inhibition” value is -2% and the Z score came to 0.28.

`O=C(Nc1cccc(-c2cnc3n2CCC3)c1)c1ccc(F)cc1F`: the “% Inhibition” value is -14% and the Z score is recorded as 2.16.

`CC(C)(C)c1nnc(N2C[C@@H]3[C@H](C2)[C@H]2CC[C@@H]3O2)o1`: the “% Inhibition” value is -1% and the Z score worked out at 0.2.

Turning to `CCCc1nc(-c2cc3cccc(C)c3nc2NCCN2CCc3ccccc3C2)no1`, the “% Inhibition” value worked out at 11% and the Z score was -1.57.

With `Cc1coc(-c2cc(NCc3cccc(O)c3)ccc2C)n1`, the “% Inhibition” value is reported as -15% and the Z score came to 2.36.

Turning to `O=C(Cn1cc(S(=O)(=O)N2CCOCC2)ccc1=O)Nc1ccc(F)cc1Cl`, the “% Inhibition” value is 4% and the Z score is listed as -0.76.

For the compound `CC1CN(CC(=O)Nc2nccs2)CC(C)O1` (stereo not given), the “% Inhibition” value is -45% and the Z score turned out to be 5.29.

For the compound `O=C(c1ccccc1)N(CCN1CCOCC1)C1CCOCC1`, the “% Inhibition” value was -12% and the Z score is on record as 1.92.

Take `CN(CC1CC(O)C1)C(=O)Nc1c(F)cccc1Oc1ccccc1` (stereo not given): the “% Inhibition” value is recorded as -17% and the Z score turned out to be 2.77.

In the case of `COCCn1nnnc1[C@]1(N(C)C)CCCN(S(=O)(=O)c2ccc(F)cc2F)C1`, the “% Inhibition” value is on record as -12% and the Z score came to 1.64.

Consider `Cn1nccc1NC(=O)Cn1ncc2cc(-c3cccc4cccnc34)ccc21`, for which the “% Inhibition” value was determined as 0% and the Z score is -0.05.

`CC(C)NS(=O)(=O)NCCNC(=O)C1CCCCCC1`: the “% Inhibition” value is listed as -1% and the Z score is given as 0.11.

For the compound `O=S(=O)(NCC1(c2ccccn2)CC1)c1c(Cl)ccc2scnc12`, the “% Inhibition” value was -3% and the Z score is recorded as 0.45.

`C[C@H]1CN(C(=O)c2oc3ccccc3c2Cn2cccn2)CC(=O)N1`: the “% Inhibition” value turned out to be 2% and the Z score was -0.3.

As for `CC(C(=O)Nc1ccc(S(=O)(=O)N2CCOCC2)cc1)N1CCCC1c1ccsc1` (stereo not given), the “% Inhibition” value turned out to be 26% and the Z score was -3.28.

As for `Cn1c(Cl)c[n+](C)c1[C@H](O)c1ccccc1`, the “% Inhibition” value is 27% and the Z score was -3.03.

As to `Clc1cncc(Oc2ncc(Br)cn2)c1`, the “% Inhibition” value is 14% and the Z score is -1.82.

`Cc1ccc(C)c(NC(=O)N2Cc3c(C)nn(-c4ccccc4)c3-n3cccc3[C@H]2c2ccccc2)c1`: the “% Inhibition” value is recorded as -11% and the Z score was found to be 2.08.

Regarding `FC(F)(F)c1ccccc1-n1nc(C2CC2)nc1-c1csnn1`, the “% Inhibition” value is recorded as -3% and the Z score came to 0.5.

In the case of `Cc1ccc(CCNC(=O)COc2cccnc2)o1`, the “% Inhibition” value is on record as -17% and the Z score was determined as 2.93.

With `CC1(C)C[C@@H](c2ccccc2)N(C(=O)Nc2ncc(C3CCOCC3)s2)C1`, the “% Inhibition” value is -4% and the Z score was found to be 0.48.

`O=C(NC[C@H]1Cc2ccccc2CN1)C(F)(F)F`: the “% Inhibition” value is -4% and the Z score stood at 0.43.

As to `Cc1occc1C(=O)NCCN1Cc2ccccc2O[C@H](c2ccccc2F)C1`, the “% Inhibition” value is on record as -9% and the Z score turned out to be 1.71.

As for `CCN1C[C@]2(CCCN(C(=O)c3ccccc3N3CCCC3)C2)CCC1=O`, the “% Inhibition” value was 7% and the Z score was -1.03.

With `CC1CCCC(C)N1S(=O)(=O)c1ccc(NS(=O)(=O)c2cccc(C(=O)O)c2)cc1` (stereo not given), the “% Inhibition” value was determined as 4% and the Z score is -0.38.
